According to patent publication US20210269542A1 (POTENZA THERAPEUTICS, published 2021):
Numbering of substitutions follows the chain as printed. Names may count otherwise. One block for each binder: values may come before it.

What was measured:
human GITR T43R-Fc [1] = target: T1, human GITR T43R-Fc (human, UniProt Q9Y5U5 26-162); test: BLI Octet, ABP on AHC sensor, antigen 50-0.78 nM, multi-concentration, n = 1
T1 construct: also called hGITR-T43R; Human GITR-Fc T43R
T1 chain: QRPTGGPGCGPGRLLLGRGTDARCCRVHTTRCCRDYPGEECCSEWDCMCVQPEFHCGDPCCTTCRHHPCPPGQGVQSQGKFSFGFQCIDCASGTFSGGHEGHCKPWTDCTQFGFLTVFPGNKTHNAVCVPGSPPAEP

human GITR T43R-Fc [2] = target: T1, human GITR T43R-Fc; test: BLI Octet, ABP on AHC sensor, 25 nM antigen, single concentration
mouse GITR-Fc = target: T2, mouse GITR-Fc (mouse, UniProt O35714 20-153); test: as above
T2 construct: also called mGITR
T2 sequence: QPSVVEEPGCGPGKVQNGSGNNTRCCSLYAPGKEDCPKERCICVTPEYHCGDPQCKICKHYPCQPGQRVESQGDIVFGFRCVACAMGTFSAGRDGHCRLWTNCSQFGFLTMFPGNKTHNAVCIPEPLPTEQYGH

human GITR-Fc [3] = target: T3, human GITR-Fc (human, UniProt Q9Y5U5 26-162); test: as above
T3 construct: also called recombinant hGITR; wild type human GITR-Fc
T3 sequence: T1 chain with R18T

cyno GITR-Fc [4] = target: T4, cyno GITR-Fc (cynomolgus monkey); test: as above
T4 construct: also called cGITR; cynomolgus GITR
T4 chain: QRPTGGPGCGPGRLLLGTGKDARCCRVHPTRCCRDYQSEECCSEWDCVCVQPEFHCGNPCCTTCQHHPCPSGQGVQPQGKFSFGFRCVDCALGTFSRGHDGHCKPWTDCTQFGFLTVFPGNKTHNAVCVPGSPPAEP

[5] = target: T5, human GITR expressed on cells (human, UniProt Q9Y5U5 26-241); test: cell-based or functional assay
T5 sequence: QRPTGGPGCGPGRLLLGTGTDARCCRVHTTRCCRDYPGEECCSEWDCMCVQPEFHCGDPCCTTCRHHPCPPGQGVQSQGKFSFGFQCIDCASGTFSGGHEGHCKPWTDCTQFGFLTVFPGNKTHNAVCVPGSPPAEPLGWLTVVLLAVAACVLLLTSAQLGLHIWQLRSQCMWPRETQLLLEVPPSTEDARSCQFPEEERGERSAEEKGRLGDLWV

[6] = target: T6, cynomolgus monkey GITR expressed on HT1080 cells (cynomolgus monkey); test: cell-based or functional assay
T6 chain: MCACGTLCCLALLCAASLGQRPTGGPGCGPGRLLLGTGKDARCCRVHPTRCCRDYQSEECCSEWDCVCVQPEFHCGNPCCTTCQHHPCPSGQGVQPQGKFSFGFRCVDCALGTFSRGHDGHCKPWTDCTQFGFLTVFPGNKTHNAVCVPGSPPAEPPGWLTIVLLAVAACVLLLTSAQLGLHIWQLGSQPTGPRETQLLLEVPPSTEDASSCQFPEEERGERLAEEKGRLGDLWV

[7] = target: T5, human GITR expressed on cells; test: cell-based or functional assay; remark: listed apart in the source
human GITR-Fc [8] = target: T3, human GITR-Fc; test: BLI Octet, ABP on AHC sensor, antigen 50-0.78 nM, multi-concentration, n = 3
cyno GITR-Fc [9] = target: T4, cyno GITR-Fc; test: as above

B1: ABP2 (antibody, human IgG4 S228P, kappa)
heavy: QVQLQESGPGLVKPSQTLSLTCTVSGGSISSGGAVWSWIRQHPGKGLEWIGGIAYSGSTYYNPSLKSRVTISVDTSKNQFSLKLSSVTAADTAVYYCADENVRGYGDYGGHHAFDIWGQGTMVTVSSASTKGPSVFPLAPSSKSTSGGTAALGCLVKDYFPEPVTVSWNSGALTSGVHTFPAVLQSSGLYSLSSVVTVPSSSLGTQTYICNVNHKPSNTKVDKRVEPKSCGGGGSQVQLQESGPGLVKPSQTLSLTCTVSGGSISSGGAVWSWIRQHPGKGLEWIGGIAYSGSTYYNPSLKSRVTISVDTSKNQFSLKLSSVTAADTAVYYCADENVRGYGDYGGHHAFDIWGQGTMVTVSSASTKGPSVFPLAPCSRSTSESTAALGCLVKDYFPEPVTVSWNSGALTSGVHTFPAVLQSSGLYSLSSVVTVPSSSLGTKTYTCNVDHKPSNTKVDKRV[human IgG4 Fc with S228P (EU numbers) left out]
light: [about 100 residues left out][about 100 residues left out]
notes: TM format, N-terminal Fab: VH + IgG1 CH1 + GGGGS + VH + IgG4 S228P; heavy chain with or without C-terminal Lys
Kd (human GITR T43R-Fc [1]): 100 pM | Kd (human GITR T43R-Fc [2]): 730 pM | binding result (mouse GITR-Fc): no binding (tested: 25 nM) | Kd (human GITR-Fc [3]): 550 pM | Kd (cyno GITR-Fc [4]): 790 pM | % Maximum IL-8 Induction Relative to GITRL in human HT1080 [5]: 97% | Average EC50 in Human HT1080 (IL-8 induction) [5]: 126 pM | % Maximum IL-8 Induction Relative to GITRL in cynomolgus HT1080 [6]: 80% | Average EC50 in cynomolgus HT1080 (IL-8 induction) [6]: 61 pM | % Activity Compared to GITRL, Jurkat cells expressing human GITR [7]: 114% | EC50, Jurkat cells expressing human GITR [7]: 210 pM | Kd (human GITR-Fc [8]): 230 pM | Kd (cyno GITR-Fc [9]): 710 pM

B3: ABP7 (antibody, human IgG4 S228P, kappa)
heavy: QVQLQESGPGLVKPSETLSLTCAVSGYSISSEYMWGWIRQPPGKGLEWIGLIYHSGKTYYNPSLKSRVTISVDTSKNQFSLKLSSVTAADTAVYYCAREADRGYGDYGGHHAFDIWGQGTMVTVSSASTKGPSVFPLAPSSKSTSGGTAALGCLVKDYFPEPVTVSWNSGALTSGVHTFPAVLQSSGLYSLSSVVTVPSSSLGTQTYICNVNHKPSNTKVDKRVEPKSCGGGGSQVQLQESGPGLVKPSETLSLTCAVSGYSISSEYMWGWIRQPPGKGLEWIGLIYHSGKTYYNPSLKSRVTISVDTSKNQFSLKLSSVTAADTAVYYCAREADRGYGDYGGHHAFDIWGQGTMVTVSSASTKGPSVFPLAPCSRSTSESTAALGCLVKDYFPEPVTVSWNSGALTSGVHTFPAVLQSSGLYSLSSVVTVPSSSLGTKTYTCNVDHKPSNTKVDKRV[human IgG4 Fc with S228P (EU numbers) left out]
light: DIQMTQSPSSLSASVGDRVTITCRASQSINSYLNWYQQKPGKAPKLLIYAASSLDSGVPSRFSGSGSGTDFTLTISSLQPEDFATYYCQQEYNTPPTFGGGTKVEIKRTVAAPSVFIFPPSDEQLKSGTASVVCLLNNFYPREAKVQWKVDNALQSGNSQESVTEQDSKDSTYSLSSTLTLSKADYEKHKVYACEVTHQGLSSPVTKSFNRGEC
notes: as for B1
Kd (human GITR T43R-Fc [1]): 700 pM | Kd (human GITR T43R-Fc [2]): 1100 pM | binding result (mouse GITR-Fc): no binding (tested: 25 nM) | Kd (human GITR-Fc [3]): 760 pM | Kd (cyno GITR-Fc [4]): 1900 pM | % Maximum IL-8 Induction Relative to GITRL in human HT1080 [5]: 124% | Average EC50 in Human HT1080 (IL-8 induction) [5]: 217 pM | % Maximum IL-8 Induction Relative to GITRL in cynomolgus HT1080 [6]: 95% | Average EC50 in cynomolgus HT1080 (IL-8 induction) [6]: 128 pM | % Activity Compared to GITRL, Jurkat cells expressing human GITR [7]: 108% | EC50, Jurkat cells expressing human GITR [7]: 200 pM | Kd (human GITR-Fc [8]): 450 pM | Kd (cyno GITR-Fc [9]): 1700 pM

B4: ABP6 (antibody, human IgG4 S228P, kappa)
heavy: QVQLQESGPGLVKPSETLSLTCAVSGYSISSGAGWGWIRQPPGKGLEWIGLIVHSGSTYYNPSLKSRVTISVDTSKNQFSLKLSSVTAADTAVYYCVLESVRGYGDYGGHHAFDIWGQGTMVTVSSASTKGPSVFPLAPSSKSTSGGTAALGCLVKDYFPEPVTVSWNSGALTSGVHTFPAVLQSSGLYSLSSVVTVPSSSLGTQTYICNVNHKPSNTKVDKRVEPKSCGGGGSQVQLQESGPGLVKPSETLSLTCAVSGYSISSGAGWGWIRQPPGKGLEWIGLIVHSGSTYYNPSLKSRVTISVDTSKNQFSLKLSSVTAADTAVYYCVLESVRGYGDYGGHHAFDIWGQGTMVTVSSASTKGPSVFPLAPCSRSTSESTAALGCLVKDYFPEPVTVSWNSGALTSGVHTFPAVLQSSGLYSLSSVVTVPSSSLGTKTYTCNVDHKPSNTKVDKRV[human IgG4 Fc with S228P (EU numbers) left out]
light: B3 light with N30S, S52D, D55Q
notes: as for B1
Kd (human GITR T43R-Fc [1]): 35 pM | Kd (human GITR T43R-Fc [2]): 710 pM | binding result (mouse GITR-Fc): no binding (tested: 25 nM) | Kd (human GITR-Fc [3]): 630 pM | Kd (cyno GITR-Fc [4]): 1090 pM | % Maximum IL-8 Induction Relative to GITRL in human HT1080 [5]: 96% | Average EC50 in Human HT1080 (IL-8 induction) [5]: 83 pM | % Maximum IL-8 Induction Relative to GITRL in cynomolgus HT1080 [6]: 92% | Average EC50 in cynomolgus HT1080 (IL-8 induction) [6]: 77 pM | % Activity Compared to GITRL, Jurkat cells expressing human GITR [7]: 121% | EC50, Jurkat cells expressing human GITR [7]: 290 pM | Kd (human GITR-Fc [8]): 150 pM | Kd (cyno GITR-Fc [9]): 1600 pM

B6: ABP8 (antibody, human IgG4 S228P, kappa)
heavy: B3 heavy
light: B3 light with R24G, N30S, S31T, A50S, D55E, T97S
notes: as for B1
Kd (human GITR T43R-Fc [1]): 660 pM | Kd (human GITR T43R-Fc [2]): 1020 pM | binding result (mouse GITR-Fc): no binding (tested: 25 nM) | Kd (human GITR-Fc [3]): 730 pM | Kd (cyno GITR-Fc [4]): 940 pM | % Maximum IL-8 Induction Relative to GITRL in human HT1080 [5]: 100% | Average EC50 in Human HT1080 (IL-8 induction) [5]: 255 pM | % Maximum IL-8 Induction Relative to GITRL in cynomolgus HT1080 [6]: 89% | Average EC50 in cynomolgus HT1080 (IL-8 induction) [6]: 201 pM | % Activity Compared to GITRL, Jurkat cells expressing human GITR [7]: 114% | EC50, Jurkat cells expressing human GITR [7]: 300 pM | Kd (human GITR-Fc [8]): 520 pM | Kd (cyno GITR-Fc [9]): 660 pM

Binders with a lower Kd (human GITR T43R-Fc [1]), results first:

Kd (human GITR T43R-Fc [1]): 2.7 pM | Kd (human GITR T43R-Fc [2]): 710 pM | binding result (mouse GITR-Fc): no binding (tested: 25 nM) | Kd (human GITR-Fc [3]): 580 pM | Kd (cyno GITR-Fc [4]): 1100 pM | % Maximum IL-8 Induction Relative to GITRL in human HT1080 [5]: 96% | Average EC50 in Human HT1080 (IL-8 induction) [5]: 97 pM | % Maximum IL-8 Induction Relative to GITRL in cynomolgus HT1080 [6]: 92% | Average EC50 in cynomolgus HT1080 (IL-8 induction) [6]: 72 pM | % Activity Compared to GITRL, Jurkat cells expressing human GITR [7]: 120% | EC50, Jurkat cells expressing human GITR [7]: 190 pM | Kd (human GITR-Fc [8]): 120 pM | Kd (cyno GITR-Fc [9]): 1100 pM
B2: ABP3 (antibody, human IgG4 S228P, kappa)
heavy: B4 heavy
light: B3 light with N30S, D55K, S56Y
notes: as for B1

Kd (human GITR T43R-Fc [1]): 4.5 pM | Kd (human GITR T43R-Fc [2]): 720 pM | binding result (mouse GITR-Fc): no binding (tested: 25 nM) | Kd (human GITR-Fc [3]): 500 pM | Kd (cyno GITR-Fc [4]): 1190 pM | % Maximum IL-8 Induction Relative to GITRL in human HT1080 [5]: 85% | Average EC50 in Human HT1080 (IL-8 induction) [5]: 92 pM | % Maximum IL-8 Induction Relative to GITRL in cynomolgus HT1080 [6]: 102% | Average EC50 in cynomolgus HT1080 (IL-8 induction) [6]: 44 pM | % Activity Compared to GITRL, Jurkat cells expressing human GITR [7]: 117% | EC50, Jurkat cells expressing human GITR [7]: 220 pM | Kd (human GITR-Fc [8]): 110 pM | Kd (cyno GITR-Fc [9]): 1500 pM
B5: ABP4 (antibody, human IgG4 S228P, kappa)
heavy: B4 heavy with L46P, L280P
light: B3 light with Q27K, N30D, D55Q
notes: as for B1
